Measured values from the supplement of paper PMC12632987.
The full ranking holds about 4,500 sequences; the median of “median log2 fold change of GCK-ALFA target abundance (FLAG IP / Myc IP barcode read proportion)” is about 0.078, and the lowest 2% start at about -0.6. The list shows a part of the results.

B1: GBRAP_166_4989 (protein)
chain: SLEELKEELEKELEEVLKKIEEADKDEVIELLIDFGIKLEEARKKGLPLEYALELAVRLAVEAAKRIGDPRLAVGVIAEAAGLDEEELDKLLEEVEKRLK
B2: GBRAP_14_3839 (protein)
chain: KEEIEKLLKKAVEEAVEAVRELAPESKEEEVKKLREVLLKAVDEGLATGDLEEAERYLVDVAEESVKELFKDLPPEERGALVAEAVDTLIEGFEELEKKL
B3: GBRAP_128_3198 (protein)
chain: VSPEALAELRELADEVIETKTDEAIERFAEAVREALEAGEIDLDALEEIVEYLGEHLDADTLAKVEDALREALADVGAEALAVASGTLGEAIMEKEEEEE
B4: GBRAP_186_5369 (protein)
chain: SEEAKKEIEEFIDEFAKKGYIVIGVLKVEEFTEEEKERIEREIRAAAEFSAEFGYKVAIIIEFKGSEEEYEELKEFVEETVERLKKETGAEVEVKIVHNK
B5: GBRAP_128_3301 (protein)
chain: MPEELRKRVEELVETIKTGDKEEQRKAAEEIAELMKSVNLEEAEAIADIIISRIPELSKEALEILAEVLDKARPELTPEKRALAAEVASEALLEAEKLEE
B6: GBRAP_160_4532 (protein)
chain: DEFLKRAEELVEEAAERAIELVKGETVEQRIVIIEMEFGSVAMELAEDPRASDEMVDVVLDERDKLIETLKENPDLTDEEIKELIEKARDEIIKKLKELA
B7: GBRAP_52_6179 (protein)
chain: MREELREKIREMLELVKAGKLEEARKLARELVESLSEEELRLLVEELEEVAEESPLEDEDAVFRLAEILAEEIEEAGYDEVIAEDLLAAAARALYKKRLA
B8: GBRAP_139_3694 (protein)
chain: SAREEKLKKAVELTKRAIEEGEPAIRELAKYLVSLSEEEQIEAAEAIAEVLLPLPFDEAERLLELLIEVLRKEFGNEDLAEIVEAARNRALARIAVREEA
B9: GBRAP_52_6148 (protein)
chain: SEERAREAAERFIAAVRAGDEEEAREIMKEIAATFSDEEIALFLREVARLVATLTPEQKERVVELMIEFEDIAEAAGHDADLMSYLLAEVAGAAYKALQA
B10: GBRAP_83_6885 (protein)
chain: KEKITVAGPSDRIEEIVDIVIDLTKEEGYEVVIEVLATPEGLEKVKEGVERLAKAGVNTEIEIYAKGVTPEEAEALKKELEAIAKKYGVNIKITIHLEEP
B11: GBRAP_186_5370 (protein)
chain: EEEAKKEIEEFIDEAADEGYVIFGVLEVEEFTEEAKERIERELEALAEFSAEFGYKGALIILTKTSEEEFEKLKKYVEEKREKLSKETGAEVKVKIIHVK
B12: GBRAP_128_3602 (protein)
chain: AVEEARERARKALEEIKNSDLETAKKIAEELAEWLLTKSLEEVKAAMETIKELAPELTEDKLLILQDALHAAAKKATPEKQEVLLDAIGVLGEEAYEKTE
B13: GBRAP_125_3078 (protein)
chain: ADEQALADLATLARRLGLSDADVEELVRLAAASSLKQTLIALFLAEGWEEVADAMAKLTEEQARAVLARVAEYLAAHPDATPEEVKALALRLAEEALAAA
B14: GBRAP_160_4118 (protein)
chain: TEEDIKLLKDQAKDLKEDIKIVEELSPEEAGNLAEVTLGEIRLELDERNGKFEELAEKADEKIEEIEKTREENPEELKEVSLKALKEMEKALEKAAKELE
B15: GBRAP_128_3264 (protein)
chain: MNPEIVEYANNFIEKLKNSDKEEAKKLANELMEKLKTLTDEEVEQFVDVIEKRLKELSVEKLEILADAAREHRDEFTPEKANLVAGLAVEALNEAEEKEE
B16: GBRAP_153_3951 (protein)
chain: SMKEEELKKKALELIEKIKKTGGDEELIKEFAELIKELNEENKKEIFKELDSLPEELIKKIVKTLIKEGGISPEEIISWIVGTSEETEAAILEAIVEASK
B17: GBRAP_160_4502 (protein)
chain: SEKLEEAFKYLDEEKELAIEAAKEVSDEDAVKIIEAYAGLMIEYLKEEYGASEEAVDKMMKKVDEIVEKLKSIPNLTDEDVEKAIEEIREFFKKLLKEES
B18: GBRAP_52_6192 (protein)
chain: MREELRRRVREILALVRAGRLEEARRAARELVARLNDEELRLLTEVLAEVAAEAPLEDEDAVFRTAELLAEAMEEAGKDEVLAEDLLAAAARALYAKHLA
B19: GBRAP_43_5780 (protein)
chain: SKELVDGAFETALLAAEEPNIPEETKVKIIKLAFELAADEGYIDEEKLKEIIDAAGKSLSAEALKKIKEHLLKIAKEHPEFAEKFKEAAEKVEKYIKEKE
B20: GBRAP_125_3087 (protein)
chain: MEEEALEYAGIILAAFGFSEEEIEEFKRASEGSTVKTILQALVLAMDLPEAAEKSLELTDEEAYAVLKEVADYIKAHPDLTPEEVKAKLAEAIDKALAAS
B21: GBRAP_160_4735 (protein)
chain: MEKIKELVEEAKKLFLETVELTKDLSKEEQRALFEGAAGEALMDFIEDPNISDEMEDTAAEMLDELVAELVANYDASVEEKKKIVEEKMEELLKKLLEIA
B22: GBRAP_83_6976 (protein)
chain: KEEITVASPADRIEEAVEIAIDLHKNEGYKVTFEIIVRPEDLEKALEEIERLLKAIKDVEIEVVLEGATEEEAEALLKELKEIAAKLGANSKITVHLVEP
B23: GBRAP_11_2648 (protein)
chain: SKEVLLRAAELARELAETLARLIEEGVDNEELIAEAERLLEELARLAEEHLDEAIRSDVAVARELWAEFLADEANREEYARQLLAAVRVLEGNLLLAADE
B24: GBRAP_78_6706 (protein)
chain: GVEEKLEKAIEELGKAAKLLVKEGTELANDALGELVDAETYLWEAIEKGADLELLKKAKESLEKAIELAKKLDVPNKEEILKHLEKALKLVEEAIKEVEK
B25: GBRAP_11_2659 (protein)
chain: KKEIYKEAAKLAEKAAEALKKLIKEGVDNEELIKKIEELLKEIKKLAEEYLDEATKSDVKVAEELWKKFKEDKENQLEYAKELLAAVRVLEGNLLLEADE
B26: GBRAP_52_6282 (protein)
chain: SMEEVEKVAKEIVALVKAGDLDAALALAKKFAKEASLEEVKELAKLLIKELATLSPEQQELMFEVIEALAKELEKRFGEEEEADILEAEAAAAIYKQLQK
B27: GBRAP_11_2792 (protein)
chain: KKELLKELAEVLKEAAELLERLLASGLDDEELWEELRELLKKAEELAKKAGDEFTAELLRYAAEELERAREDPERAQEHVERALALVRVAEGQVLLAIEE
B28: GBRAP_14_3866 (protein)
chain: KETALKIVEEAIEEAREELKKAFPEKEELIEKVAEEIRKYAKEKLEKEEDIEEAMEEIKEYALKKVKEAFADLPPEDQAAALTIVDNEFLEADLEIEEKK
B29: GBRAP_160_4478 (protein)
chain: SEKVKEAAEELRKDVEEVLEESKDASPEQLALAVSVELGSNLMEFSSEGKINDEQEDIVIEAMDEIRELGEREKDASVEEVKERIREIVEEMVEKILEAA

biological target: GABARAP, O95166; assay: median log2 fold change of GCK-ALFA target abundance (FLAG IP / Myc IP barcode read proportion) (log2 ratio); each designed protein is fused to an ALFA-tag nanobody in HEK293 cells to bring the named protein to FLAG-tagged glucokinase (GCK); Myc marks an untargeted standard; higher = target protein stabilised (more abundant); details: target protein: 3xFLAG-MCP-GCK-ALFA reporter; HEK293 landing pad (RPLP)
Sequence (O95166 whole entry, the tested form may be a part): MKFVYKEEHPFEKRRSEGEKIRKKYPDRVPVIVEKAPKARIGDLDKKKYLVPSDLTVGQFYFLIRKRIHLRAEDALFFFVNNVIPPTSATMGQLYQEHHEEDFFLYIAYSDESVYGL
Outline: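 An ALFA-nanobody-fused binder library was recombined into HEK293 landing-pad cells and induced with 2 μg mL^−1 doxycycline. Cells were transfected with a plasmid expressing a FLAG-tagged target and a Myc-tagged standard. After 48 h, lysates underwent anti-FLAG and anti-Myc immunoprecipitation, and circular RNA barcodes were reverse transcribed, amplified and sequenced. Target abundance is the per-binder median log2 ratio of FLAG to Myc barcode read proportions. Barcodes needed ≥10^−7 proportion in both replicates, binders ≥3 barcodes per replicate, and a 10^−6 pseudocount was added; the two replicates were pooled.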

Binder	median log2 fold change
B1	0.241
B2	0.252
B3	0.136
B4	-0.0034
B5	0.241
B6	0.247
B7	0.0856
B8	0.0652
B9	-0.0378
B10	0.141
B11	-0.171
B12	0.198
B13	0.181
B14	0.209
B15	0.334
B16	0.317
B17	0.16
B18	0.013
B19	-0.28
B20	0.142
B21	-0.537
B22	-1.64e-05
B23	0.122
B24	0.207
B25	0.282
B26	0.137
B27	-0.348
B28	0.664
B29	0.00647
